Experimental findings from PubChem BioAssay AID1645887 (National Center for Advancing Translational Sciences (NCATS), 2021) are described below.

The structures appear in SMILES notation. Where “and” joins values, the source holds several entries; their conditions need not be identical. Identical values can stand only once. Out of some 16,000 compounds screened, about 40 (0.2%) were called active. About 1% were inconclusive and are not listed. The call rests on the fitted dose curve; in most records, active means well fitted activation curve with a large enough effect; inconclusive means small, poorly fitted or top-dose-only effect, or another doubt; inactive means no such curve, though single readings can be large or run the other way. This is one part of the list.
On the % scale 0 is the no-effect control and ±100 the full control effect.

The assay deals with Rap guanine nucleotide exchange factor 4 (Homo sapiens) (UniProt Q8WZA2). Nature of the assay: Validation qHTS for agonist of cAMP-regulated guanine nucleotide exchange factor 4 (EPAC2).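 Further: exchange makes BODIPY-GDP fluorescence drop when released from Rap1B; series mostly up to about 150 µM.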 Conditions: EPAC2 Rap1B BODIPY-GDP exchange, fluorescence; activation: stronger effect = higher value. From the text: Principle Investigator: Xiaodong Cheng Ph.D.
Chain of UniProt Q8WZA2 (Q8WZA2 whole entry, looked up): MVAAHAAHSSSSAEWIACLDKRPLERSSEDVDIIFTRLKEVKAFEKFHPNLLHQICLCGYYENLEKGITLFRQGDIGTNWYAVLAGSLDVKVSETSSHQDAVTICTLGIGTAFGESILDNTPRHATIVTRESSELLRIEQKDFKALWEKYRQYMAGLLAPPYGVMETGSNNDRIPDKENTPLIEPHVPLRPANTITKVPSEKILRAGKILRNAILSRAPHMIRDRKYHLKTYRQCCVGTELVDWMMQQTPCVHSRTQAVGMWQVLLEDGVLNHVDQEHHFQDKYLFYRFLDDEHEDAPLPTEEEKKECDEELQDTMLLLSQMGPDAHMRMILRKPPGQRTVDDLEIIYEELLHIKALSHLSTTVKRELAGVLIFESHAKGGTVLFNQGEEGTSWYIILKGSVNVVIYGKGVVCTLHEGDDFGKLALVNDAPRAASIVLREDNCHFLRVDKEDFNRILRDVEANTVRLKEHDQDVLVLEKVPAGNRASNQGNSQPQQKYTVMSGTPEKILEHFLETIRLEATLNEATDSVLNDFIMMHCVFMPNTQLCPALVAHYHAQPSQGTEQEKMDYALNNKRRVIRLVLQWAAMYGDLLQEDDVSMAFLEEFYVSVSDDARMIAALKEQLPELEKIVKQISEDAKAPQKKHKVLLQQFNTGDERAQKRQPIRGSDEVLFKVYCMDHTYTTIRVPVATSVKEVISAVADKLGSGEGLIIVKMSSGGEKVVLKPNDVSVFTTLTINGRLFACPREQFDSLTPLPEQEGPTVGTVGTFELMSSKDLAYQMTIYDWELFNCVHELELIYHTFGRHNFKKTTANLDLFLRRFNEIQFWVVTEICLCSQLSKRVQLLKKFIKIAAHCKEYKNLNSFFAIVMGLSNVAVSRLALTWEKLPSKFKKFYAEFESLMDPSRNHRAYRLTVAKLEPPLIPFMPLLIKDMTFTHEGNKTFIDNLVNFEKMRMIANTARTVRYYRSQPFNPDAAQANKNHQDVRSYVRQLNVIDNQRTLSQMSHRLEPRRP
The University of Texas Medical Branch, […], TX
In multi-cellular eukaryotic organisms, the effects of cAMP are transduced by two ubiquitously-expressed intracellular cAMP receptors, the classic protein kinase A/cAMP-dependent protein kinase (PKA/cAPK) and the more recently discovered exchange protein directly activated by cAMP/cAMP-regulated guanine nucleotide exchange factor (EPAC/cAMP-GEF). Both PKA and EPAC are ubiquitously expressed in all tissues, and an increase in intracellular cAMP levels will lead to the activation of both PKA and EPAC. Therefore, careful dissections of the individual role and relative contribution of EPAC and PKA within the overall cAMP signaling in various model systems are critical for further elucidating the mechanism of cAMP signaling. To date no EPAC-specific antagonists and agonist, as well as isoform-specific agonists have been reported, and developing EPAC-specific pharmacological probes to determine the physiological functions that EPAC play in the overall cAMP-mediated signaling remains a major challenge within the research field. Furthermore, identified regulators of EPAC may lead to new mechanism-based therapeutic strategies specifically targeting the EPAC / cAMP-signaling components as EPAC has been implicated to play important roles in major human pathological conditions such as diabetes, heart disease, and cancer.
This qHTS will be used to screen the Molecular Libraries Small Molecule Repository (MLSMR) as a concentration-titration series using the NCGC unique quantitative screening (qHTS) platform to find activators for EPAC1. In addition, this assay will also be used as a counterscreen for the EPAC2 qHTS. This fluorescent based assay is developed and validated for EPAC1 that measures exchange using EPAC effector Rap1 complex with BODIPY-GDP, a GDP analog with a tethered fluorophores. Activators are identified by monitoring the change in fluorescence signal as the exchanged free BODIPY-GDP has a reduced fluorescence compared to Rap1-bound BODIPY-GDP. Increase in signal (activation) is the desired outcome for the EPAC1 agonist while no activity in this assay is desired for the EPAC2 agonist counterscreen.
[1] de Rooij, J., Zwartkruis, F. J., Verheijen, M. H., Cool, R. H., Nijman, S. M., Wittinghofer, A., and Bos, J.L. (1998) Nature 396, 474-477.
Briefly, three uL of reagents (100 nM EPAC2, 250 nM RAP1B-BODIPY-GDP, 50 uM GDP) were dispensed into a 1536-well Greiner black solid-bottom medium binding assay plate. Controls and test compounds (23 nL) were transferred to the plate via a Kalypsys pin tool equipped with a 1536-pin array. The plates were centrifuged at 1,000 rpm for 15 seconds followed by 5 minute incubation at room temperature. The assay plates were read at 5 minute intervals for 30 minutes in the ViewLux plate reader using 480nm excitation and 540nm emission filters. The results were normalized to the agonist positive control of 6.5 mM cAMP.
On the technique in general: Quantitative high-throughput screening tests each substance at several concentrations.
Turning to `C=CCN1CC[C@]23c4c5ccc(O)c4OC2C(=O)CC[C@]3(O)C1C5` (stereo not given in full), the activation was inactive: 18%.
Next, `COc1cc2c(cc1OC)-c1c(O)c(OC)cc3c1[C@H](C2)N(C)CC3`: inactive: 5.67%; `CCOc1ccc2c3c1O[C@H]1[C@@H](O)C=C[C@H]4[C@@H](C2)N(C)CC[C@@]341`: inactive: 9.85%.
In the case of `Cn1cnc(CCN)c1` it was inactive: -22.7%.
For the molecule `COc1cc2c(cc1OC)-c1c(OC)c(OC)c(C=O)c3c1[C@H](C2)N(C)CC3`, the activation is inactive: 5.07%.
Next, `Cc1ccccc1-n1c(CF)nc2ccc(N)cc2c1=O`: inactive: -7.51%.
In the case of `CCCCCC1C(=O)O[C@H](C)[C@@H](NC(=O)c2cccc(NC=O)c2O)C(=O)OC(C)C1OC(=O)CC(C)C` (stereo not given in full) it was inactive: -40.8%; in that of `COc1ccc(NC(=O)N2CCCC3(CCN(C(=O)Oc4ccccc4)CC3)C2)cc1`, inactive: -4.9%.
Next, `CC(Cc1ccc(O)cc1)NCC(O)c1cc(O)cc(O)c1` (stereo not given): inactive: -3.33% and inactive: -4.16% and inactive: -2.87%; `C/C(=C\c1csc(C)n1)[C@@H]1C[C@@H]2O[C@]2(C)CCC[C@H](C)[C@H](O)[C@@H](C)C(=O)C(C)(C)[C@@H](O)CC(=O)O1`: inactive: -14.3%.
For the molecule `C=C[C@H]1CN2CC[C@H]1C[C@@H]2[C@@H](O)c1ccnc2ccccc12`, the activation is inactive: -10.5%.
In the case of `CCN(CC)C(=O)/C(Cl)=C(\C)OP(=O)(OC)OC` it was inactive: -18.6%.
In the case of `C=CCN=C=S` it was inactive: -31.4%; in that of `Nc1ncnc2c1ncn2[C@@H]1O[C@H](COP(=O)(O)CP(=O)(O)O)[C@@H](O)[C@H]1O`, inactive: 6.92%.
In the case of `CC(C)NC(=O)N1CCCC2(CCN(C(=O)Oc3ccccc3)CC2)C1` it was inactive: -6.63%; in that of `COC(=O)/C(C)=C\CC12OC(C)(C)C3CC(C=C4C(=O)c5c(OC)c6c(c(CC=C(C)C)c5OC431)OC(C)(CCC=C(C)C)C=C6)C2=O` (stereo not given), inactive: -31.4%.
On to `CC(C)N(CCC(C(N)=O)(c1ccccc1)c1ccccn1)C(C)C` (stereo not given), for which the activation was inactive: 7.55% [middle of 4 runs].
In the case of `O=[N+]([O-])/C=C/c1ccc2c(c1)OCO2` it was inactive: -17.7%; in that of `COP(N)(=O)SC` (stereo not given), inactive: 1.01%.
Take `CCC12CCCN3CCC4(c5ccc(OC)c(O)c5N(C(C)=O)C4CC1)C32` (stereo not given): the activation was inactive: -1.82%.
Consider `CO[C@H]1[C@@H](O)C[C@H](O[C@H]2[C@@H](O)C[C@H](O[C@H]3[C@@H](O)C[C@H](O[C@H]4CC[C@@]5(C)[C@H](CC[C@@H]6[C@@H]5C[C@@H](O)[C@]5(C)[C@@H](C7=CC(=O)OC7)CC[C@]65O)C4)O[C@@H]3C)O[C@@H]2C)O[C@@H]1C`, for which the activation was inactive: -8.19%.
Consider `C[C@H](N)[C@H](O)c1ccc(O)c(O)c1`, for which the activation is inactive: -12.9%.
In the case of `COC(=O)c1ccccc1C(=O)OC` it was inactive: -7.65%; in that of `Clc1ccc(C2CC3CCC2N3)cn1` (stereo not given), inactive: -3.14% and inactive: -8.51%.
In the case of `N#Cc1ccc(CN2CC[C@@]3(CCCNC3)C2)cc1` it was inactive: 0.132%.
Take `C[C@@H]1[C@@H]2Cc3ccc(O)cc3[C@@]1(C)CCN2CC1CC1`: the activation is inactive: -6.65%.
As for `C[C@]12CCC(=O)C=C1CC[C@@H]1[C@H]3CC[C@](C)(O)[C@@]3(C)CC[C@@H]12`, the activation is inactive: -15.1%.
Next, `CCN(CC)CCO[C@H]1CC[C@@]2(C)C(=CC[C@@H]3[C@H]2CC[C@]2(C)C(=O)CC[C@H]32)C1`: inactive: -9.88%.
In the case of `NCC(=O)c1ccc(Br)cc1` it was inactive: -0.142%; in that of `CCC(=O)OC1CCC2C3CCC4=CC(=O)CC[C@@]4(C)C3CC[C@]12C` (stereo not given in full), inactive: 5.54%.
Next, `C=CCN1C[C@H](C)N([C@H](c2ccc(C(=O)N(CC)CC)cc2)c2cccc(O)c2)C[C@H]1C`: inactive: 0.992%.
Consider `C=CCN1C[C@H](C)N([C@H](c2ccc(C(=O)N(CC)CC)cc2)c2cccc(OC)c2)C[C@H]1C`, for which the activation was inactive: 24.1% and inactive: -8.96%.
Next, `O=C(O)c1ccc(NC(=O)N2C[C@H]3C[C@@H](C2)c2cccc(=O)n2C3)cc1`: inactive: -7.83%; `c1cc2c(cc1C1OC[C@@H]3C(c4ccc5c(c4)OCO5)OCC13)OCO2` (stereo not given in full): inactive: -17%.
Next, `CCCCCCC[n+]1ccc(-c2cc[n+](CCCCCCC)cc2)cc1`: inactive: -38.9%.
In the case of `OC1CCCCC1N1CCC(c2ccccc2)CC1` (stereo not given) it was inactive: -9.61% and inactive: -20.8%.
`CC(Cc1ccc(OCC(=O)O)cc1)NCC(O)c1cccc(Cl)c1` (stereo not given): the activation is inactive: 7.27% and inactive: -20.6%.
Take `CC(C)=CCOc1c2occc2cc2ccc(=O)oc12`: the activation is inactive: -15.8% and inactive: -24.8%.
Regarding `NC(=O)c1ccc(N)nc1`, the activation is inactive: 3.02%.
In the case of `N[C@@H](Cc1ccc(N(CCCl)CCCl)cc1)C(=O)O`, the activation was inactive: -8.35%.
